The text below walks through data of ChEMBL document CHEMBL4888484, “Replenishing the malaria drug discovery pipeline: Screening and hit evaluation of the MMV Hit Generation Library 1 (HGL1) against asexual blood stage Plasmodium falciparum ,using a nano luciferase reporter read-out” (2022).

Hit rate of the full screen: of about 150,000 compounds, about 540 (0.36%) showed an effect of 50% or more. Some of the results follow.

The subject of the assay is Plasmodium falciparum. The assay is described as follows: Primary screen in NF54 nanoGlo assay, in single point, at 2uM, 72h; a lower Z score goes with more inhibition. In kind it is functional, Erythrocyte. The note with it: timepoint 72 hour.
The term % Inhibition denotes the relative decrease from the control value, in per cent. In the case of `CC(=O)Oc1ccccc1N(C(C)=O)C(C)=O`, the “% Inhibition” value is given as -5% and the Z score is 0.8.

As to `CC[C@@H]1CN(C(=O)C2CCS(=O)(=O)CC2)CC[C@]1(C)O`, the “% Inhibition” value amounted to 3% and the Z score is reported as -0.54.

With `CN(CCn1cccn1)[C@H]1CCc2ccccc2NC1=O`, the “% Inhibition” value is reported as -10% and the Z score is given as 1.4.

In the case of `COCCN1C(=O)c2ccc(C(=O)Nc3nc4ccccc4[nH]3)cc2C1=O`, the “% Inhibition” value is on record as -17% and the Z score was determined as 1.54.

Turning to `Cc1nc(C)c(C(=O)N(C)Cc2csc(-c3ccccc3)n2)s1`, the “% Inhibition” value is on record as -12% and the Z score was 1.48.

On to `Cc1nc2c(c(=O)n1CC(=O)N1CCc3ccccc3C1)CCN(Cc1ccccc1)C2`, for which the “% Inhibition” value came to 27% and the Z score is reported as -3.1.

In the case of `C[C@@H](Cc1cn(Cc2ccc3c(c2)OCO3)nn1)c1ccccc1`, the “% Inhibition” value was -2% and the Z score is listed as 0.29.

In the case of `CC[C@H](C)N1CCN(C(=O)C(=O)c2cnn(-c3ccccc3)c2)CC1`, the “% Inhibition” value is reported as -4% and the Z score is 0.62.

For the compound `CC(C)Oc1ccc(C(=O)N[C@@H](C)c2cc[nH]n2)c(Cl)c1`, the “% Inhibition” value is -3% and the Z score was 0.42.

On to `COc1ccc2c(C)c(C(=O)N(C)CCCOc3cccc(C)c3)oc2c1`, for which the “% Inhibition” value is -15% and the Z score was found to be 2.96.

As for `Cc1cccc2cc(C(=O)NC[C@H](O)CN3CCCCCC3)n(C)c12`, the “% Inhibition” value is reported as -16% and the Z score amounted to 2.75.

With `O=C1NCCN1CC1CCN(C(=O)c2ncc3c(F)cccn23)CC1`, the “% Inhibition” value is given as 0% and the Z score is recorded as -0.04.

With `Cn1c(CNc2ccn(CCc3ccncc3)n2)nc2ccccc21`, the “% Inhibition” value amounted to 2% and the Z score was -0.38.

For the compound `Cn1cccc1C(=O)C(=O)NCCc1ccc(Cl)cc1`, the “% Inhibition” value was -15% and the Z score was 1.41.

As for `Cc1ccc(CN2CCc3[nH]nc(-c4c(C)noc4C)c3C2)o1`, the “% Inhibition” value is on record as -1% and the Z score is reported as 0.19.

As for `Cc1ccc(-c2noc(CN3CCC[C@H]3c3ccc[nH]3)n2)cc1`, the “% Inhibition” value is listed as 11% and the Z score was -1.99.

`COc1cccc(C(=O)N2CCN(C(=O)c3ncc(F)cc3F)CC2)c1`: the “% Inhibition” value was -2% and the Z score stood at 0.32.

`O=C(Cc1nc2ccccc2[nH]1)N1C[C@H]2CC[C@@H](C1)N(CC1CC1)C2=O`: the “% Inhibition” value is on record as -3% and the Z score was determined as 0.41.

`CC1(C)C(NCCN2CCN(C(=O)C3CCCC3)CC2)[C@@H]2CCCC[C@@H]21` (stereo partly specified): the “% Inhibition” value is recorded as 4% and the Z score is -0.55.

Regarding `Cc1ncoc1C(=O)NCc1cc(Cl)cc2c(C)c(-c3ccccc3)[nH]c12`, the “% Inhibition” value is -9% and the Z score is recorded as 1.88.

For `CC(C)CNC(=O)c1cc(Cc2ccc(F)cc2)no1`, the “% Inhibition” value came to 6% and the Z score was -0.82.

Take `CC(C)c1nnc(N2C[C@@H]3CN(C(=O)C4CCC4)C[C@]3(C(=O)O)C2)s1`: the “% Inhibition” value is -12% and the Z score came out at 1.16.

In the case of `C[C@H]1CN(C2CCOCC2)CCN1C(=O)NCCOC1CCCCC1`, the “% Inhibition” value is -13% and the Z score was determined as 1.71.

In the case of `C[C@H](NC(=O)NCc1nccn1C)C1CCCCC1`, the “% Inhibition” value was -1% and the Z score is 0.08.

As to `COc1ccc(F)c(CN2CCC[C@@]3(CCN(C(=O)c4cc(C)oc4C)C3)C2)c1`, the “% Inhibition” value is -20% and the Z score is recorded as 1.85.

As for `OCc1csc(N2CCn3nc(CO)cc3C2)n1`, the “% Inhibition” value is on record as 1% and the Z score is reported as -0.1.

On to `CC(C)Cc1nc(C(=O)N2CC[C@](C)(CN)C2)cs1`, for which the “% Inhibition” value was determined as 4% and the Z score was -0.7.

Take `CC(C)c1ncc(C(=O)N2CCC[C@H](c3[nH]ncc3-c3ccccc3)C2)c(=O)[nH]1`: the “% Inhibition” value turned out to be 3% and the Z score was -0.52.

`CCC[C@H](C)N1CC2(CCN(C(=O)Cn3nccc3C)CC2)OC1=O`: the “% Inhibition” value is listed as -16% and the Z score came out at 2.94.

For the compound `C[C@H](NCc1cn(C)cn1)c1ccc(OCC2CC2)c(F)c1`, the “% Inhibition” value is -6% and the Z score was determined as 0.72.

For the compound `Cc1ccoc1C(=O)Nc1cc(C(C)C)n[nH]1`, the “% Inhibition” value is reported as -13% and the Z score is given as 2.53.

As to `O=C(c1cccs1)N1CCC(CCOc2ccccc2F)CC1`, the “% Inhibition” value is recorded as -6% and the Z score amounted to 1.16.

As to `O=C(Nc1nc2c(s1)CN(S(=O)(=O)c1cccnc1)CC2)c1ccco1`, the “% Inhibition” value was -22% and the Z score was 3.28.

For `NC(=NCc1ccc2c(c1)CCC2)N1CCN(c2nccs2)CC1`, the “% Inhibition” value was 0% and the Z score is -0.01.

As for `CCOC(=O)c1csc(N(C)C(=O)[C@@H]2CCCc3nn(C)cc32)n1`, the “% Inhibition” value was -10% and the Z score is reported as 1.52.

Consider `O=c1[nH]c2ccccc2n1-c1nc2ccccc2[nH]1`, for which the “% Inhibition” value came to 5% and the Z score is listed as -0.93.

`Nc1c(S(=O)(=O)c2ccc(Cl)cc2)c2nc3ccccc3nc2n1Cc1ccc(Cl)cc1`: the “% Inhibition” value is given as -9% and the Z score worked out at 0.81.

Take `CN(C(=O)c1cc2c(cc1Br)NC(=O)CO2)[C@H](c1ccccc1)c1ncc[nH]1`: the “% Inhibition” value is recorded as -2% and the Z score came to 0.26.

Consider `CC(=O)c1ccc(NC(=O)Cn2c(-n3nc(C)cc3C)nc3c(c2=O)CCC3)cc1`, for which the “% Inhibition” value came out at 23% and the Z score is -3.07.

Consider `Cc1ccccc1Oc1ccc(S(=O)(=O)N[C@H]2CCN(c3nccs3)C2)cc1`, for which the “% Inhibition” value is recorded as -5% and the Z score turned out to be 0.94.

On to `COc1ccc(S(=O)(=O)Oc2ccccc2CN(C(=O)C2CCC2)C(C)C)cc1`, for which the “% Inhibition” value is -2% and the Z score was determined as 0.25.

Consider `CC(C)c1cc(NCc2cc(C(F)F)on2)n2ncnc2n1`, for which the “% Inhibition” value amounted to 1% and the Z score was -0.25.

As to `CC1CCC(O)(CNc2ncnc3[nH]ncc23)CC1` (stereo unspecified), the “% Inhibition” value was -10% and the Z score worked out at 1.6.

For `CCCN1CCC(NCc2ccc(-c3cccc(Cl)c3Cl)o2)CC1`, the “% Inhibition” value stood at 55% and the Z score was -11.87.

With `O=C(COc1ccc(Cl)cc1)N1CC(=O)N2CCc3ccccc3[C@@H]2C1`, the “% Inhibition” value is on record as -8% and the Z score was found to be 1.08.

In the case of `O=C(CN1C(=O)c2ccccc2Oc2ncccc21)Nc1ccc(Oc2ccc3c(c2)OCO3)nc1`, the “% Inhibition” value is listed as -1% and the Z score came to 0.11.

On to `Brc1cnn(CCO[C@@H]2CCCCO2)c1`, for which the “% Inhibition” value is recorded as -8% and the Z score was 0.83.

For `CCC(CC)c1nnc(NC(=O)CCc2nc3ccccc3c(=O)[nH]2)s1`, the “% Inhibition” value worked out at 2% and the Z score is on record as -0.38.

On to `COCCN1C[C@]2(CCCN(C(=O)c3cccc(C)c3O)C2)CCC1=O`, for which the “% Inhibition” value is given as -5% and the Z score is given as 0.97.

Regarding `CCCn1nnnc1NC(=O)COc1ccc(C)cc1C`, the “% Inhibition” value was determined as 0% and the Z score was 0.03.

In the case of `Cc1cccc(-n2c(=O)c3sccc3n(CC(=O)NCc3ccc(F)cc3F)c2=O)c1C`, the “% Inhibition” value amounted to 37% and the Z score is on record as -5.3.

Regarding `O=C(COc1ccccc1)Nc1nnc(CCCc2ccccc2)s1`, the “% Inhibition” value was 6% and the Z score is on record as -1.05.

For the compound `COCc1nc(C)c(CNC(=O)C[C@H](C)n2cccn2)s1`, the “% Inhibition” value is listed as -18% and the Z score is 2.36.
